Laboratory results taken from publication PMC4336329 (PLoS ONE, 2015).
About 2,200 (0.71%) of roughly 310,000 compounds showed an effect of 50% or more. The effect is printed as a negative number. The list shows a part of the results.

Biological target: human ether-à-go-go-related gene (hERG) potassium channel (human, UniProt Q12809)
Assay: primary screen, population patch clamp on CHO cells stably expressing hERG

human ether-à-go-go-related gene (hERG) potassium channel, sequence (Q12809 whole entry, looked up): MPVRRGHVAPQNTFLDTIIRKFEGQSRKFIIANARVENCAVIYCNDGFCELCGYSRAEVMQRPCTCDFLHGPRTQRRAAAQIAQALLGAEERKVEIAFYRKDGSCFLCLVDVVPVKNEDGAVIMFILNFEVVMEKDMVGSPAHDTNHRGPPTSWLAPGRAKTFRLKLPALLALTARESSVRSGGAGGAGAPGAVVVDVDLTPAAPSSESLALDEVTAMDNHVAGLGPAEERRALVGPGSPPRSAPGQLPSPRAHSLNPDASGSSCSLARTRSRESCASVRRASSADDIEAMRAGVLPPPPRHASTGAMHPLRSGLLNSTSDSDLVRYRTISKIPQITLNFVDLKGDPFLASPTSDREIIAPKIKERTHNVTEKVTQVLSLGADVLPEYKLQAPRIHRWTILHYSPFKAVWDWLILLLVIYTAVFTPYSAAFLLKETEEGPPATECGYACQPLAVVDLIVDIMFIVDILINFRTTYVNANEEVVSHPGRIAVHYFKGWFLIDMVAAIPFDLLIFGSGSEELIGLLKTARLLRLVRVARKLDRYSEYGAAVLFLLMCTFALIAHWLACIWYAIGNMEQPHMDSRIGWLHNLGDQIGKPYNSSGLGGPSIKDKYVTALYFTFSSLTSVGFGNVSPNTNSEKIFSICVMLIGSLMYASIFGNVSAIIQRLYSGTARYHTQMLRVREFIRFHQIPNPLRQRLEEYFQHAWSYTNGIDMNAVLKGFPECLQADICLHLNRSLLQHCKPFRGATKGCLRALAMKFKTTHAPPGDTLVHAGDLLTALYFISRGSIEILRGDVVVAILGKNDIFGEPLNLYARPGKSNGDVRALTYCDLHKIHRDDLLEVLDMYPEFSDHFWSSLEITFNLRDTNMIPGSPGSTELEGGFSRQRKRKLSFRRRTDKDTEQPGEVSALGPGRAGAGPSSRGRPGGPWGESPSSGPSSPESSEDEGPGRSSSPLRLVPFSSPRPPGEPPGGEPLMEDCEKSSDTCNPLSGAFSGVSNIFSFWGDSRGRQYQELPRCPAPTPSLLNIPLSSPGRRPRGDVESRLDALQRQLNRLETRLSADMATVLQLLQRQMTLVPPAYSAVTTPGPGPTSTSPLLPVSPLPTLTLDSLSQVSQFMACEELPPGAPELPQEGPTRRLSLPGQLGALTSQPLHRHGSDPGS

| Structure (SMILES) | hERG current change (%, negative = inhibition) at 1uM [%] |
| --- | --- |
| COc1cccc(CCNC(=O)CCc2nnc(Cc3cc(OC)ccc3OC)o2)c1 | 15.7 |
| CCC(Oc1cc(Cl)ccc1Cl)C(=O)NN1C(=O)C2C3CCC(C3=C(C)C)C2C1=O (stereo not drawn) | 3.87 |
| CCOc1ccc(NS(=O)(=O)c2cc(NC(=O)c3ccc(C)cc3)ccc2Cl)cc1 | 11 |
| CCC(/C=N/NC(=O)c1ccccc1F)CC | 19.2 |
| CC(OC(=O)CNC(=O)c1ccc2ccccc2c1)C(=O)N(C)C1CCCCC1 (stereo not drawn) | 11 |
| O=C1C(=O)N(C2CCCC2)C(=O)N1Cc1c(F)cccc1Cl | 17.2 |
| C[C@H](NC(=O)c1[nH]cnc1C(=O)Nc1nccs1)c1ccccc1 | 3.62 |
| CCOC(=O)N/N=C\c1ccc(OC/C=C/c2ccccc2)cc1 | 21.6 |
| CCOC(=O)C1=C(C)NC(=O)NC1c1ccc(N2CCC(c3ccccc3)=N2)cc1 (stereo not drawn) | -6.03 |
| Cn1cnnc1SCC(=O)NC1CCCc2ccccc21 (stereo not drawn) | 9.41 |
| Cc1ccc(OS(=O)(=O)c2cn(C)c(=O)n(C)c2=O)cc1C | 4.07 |
| CCS(=O)(=O)N1Cc2ccccc2CC1C(=O)OCC(=O)Nc1ccc(C)cc1 (stereo not drawn) | -5.95 |
| N/C(COc1ncn(-c2ccccc2)n1)=N\S(=O)(=O)c1ccc(Cl)cc1Cl | -2.41 |
| CCOC(=O)c1ccc(NC(=O)Nc2ccc(OC)c(OC)c2)cc1 | -7.78 |
| O=C(NCCc1ccccc1)C(=O)N/N=C/c1ccccc1C(F)(F)F | 13.8 |
| C/C=C/CC1(CC)C(=O)NC(=S)NC1=O | 16.6 |
| Cc1cccc(CSc2nnc3c(n2)[nH]c2ccccc23)c1 | 9.89 |
| O=C(CSc1nc2ccccc2[nH]1)N1CCN(c2ccccc2)CC1 | 14.3 |
| CCOP(=O)(OCC)c1nc(Cc2ccccc2)oc1NCc1ccccc1 | 12.9 |
| Cc1ccc(C)c(NC(=O)c2cc([N+](=O)[O-])cc([N+](=O)[O-])c2)c1 | 13.4 |
| O=C(NCCO)C(c1ccccc1)c1ccccc1 | -1.15 |
| CC(C)[C@H](NC(=O)OCc1ccccc1)C(=O)NCc1ccccc1 | 11.4 |

| Structure (SMILES) | hERG current change (%, negative = inhibition) at 1uM [%] |
| --- | --- |
| COc1cccc(NC(=O)N2CCCC(C(=O)Nc3ccccc3OC)C2)c1 (stereo not drawn) | 0.911 |
| COc1ccc(CCC(C(O)C(F)(F)F)S(=O)c2ccccc2)cc1 (stereo not drawn) | 16.2 |
| COCCNC(=O)c1ccc(N2CC3CC(C2)c2cccc(=O)n2C3)c(NC(=O)c2c(F)cccc2F)c1 (stereo not drawn) | 3.23 |
| CC(=O)OCC1=C(C(=O)O)N2C(=O)C(NC(=O)C(C)Cn3cc(Cl)cn3)C2SC1 (stereo not drawn) | 10.3 |
| COc1ccc(/C=C/C(=O)Nc2cc(C(F)(F)F)ccc2Cl)cc1 | 12 |
| Cc1cccc(NS(=O)(=O)c2ccc(C(=O)NCC(c3ccco3)N3CCCCC3)cc2)c1C (stereo not drawn) | 1.52 |
| Cc1noc(C)c1COc1ccc(C(=O)OCC(=O)NC2CCCCC2C)cc1 (stereo not drawn) | 12.7 |
| CC1Cc2ccccc2N1C(=O)CSc1nc2c(c(=O)n(C)c(=O)n2C)n1Cc1ccc(F)cc1 (stereo not drawn) | 8.8 |
| Cc1ccc(C(=O)Nc2ccccc2N2CCCCC2)o1 | 9.19 |
| CCCCCn1c(=O)c(C(=O)Nc2cc(C)ccn2)c(O)c2ccccc21 | 17.6 |
| Cc1ccc(-c2noc(CNS(=O)(=O)c3ccccc3)n2)cc1 | 13.7 |
| Cc1ccccc1OCC(=O)NN1CCN(C)CC1.Cl | 7.51 |
| C=CCn1c(=O)n(CCC#N)c(=O)n(CCC#N)c1=O | 11.8 |
| Cc1cc(S(=O)(=O)N2CCCC2)ccc1OCC(=O)Nc1ccccc1 | 17.7 |
| CCN(CCCNC(=O)C1CCC(=O)N1C1CCCC1)c1cccc(C)c1 (stereo not drawn) | 3.73 |
| O=C(OCC(=O)N1CCc2ccccc21)c1cccc(S(=O)(=O)N2CCCc3ccccc32)c1 | -2.95 |
| O=[N+]([O-])c1ccccc1-c1ccc(CN2CCN(c3ccccc3)CC2)o1 | 4.79 |
| Cc1nc2cc(N3CCN(C)CC3)c(NC(=O)Cc3ccccc3)cc2c(=O)n1Cc1ccccc1 | 13.6 |
| Cn1c(C(=O)N2CCN(C(=O)c3ccco3)CC2)cc2c(=O)n3ccccc3nc21 | 2.19 |
| CCCC1=C(C(=O)OCC)C(c2cc(Cl)cc(OC)c2OCc2ccccc2)NC(=O)N1 (stereo not drawn) | 1.7 |
| COc1ccccc1CN1CCNC(=O)C1CC(=O)N(C)Cc1ccon1 (stereo not drawn) | 16.3 |
| CC1C(=O)Nc2ccccc2N1C(=O)c1ccc(Cl)cc1 (stereo not drawn) | 19.2 |

| Structure (SMILES) | hERG current change (%, negative = inhibition) at 1uM [%] |
| --- | --- |
| O=C(/C=C/c1ccc(Cl)cc1)NC(=S)NN1CCCCC1c1cccnc1 (stereo not drawn) | -35.6 |
| CC/C(=N\NC(=O)C1CCCC1)c1cccc(Br)c1 | 10.6 |
| O=C(Cn1c(=O)oc2cc(S(=O)(=O)N3CCCC3)ccc21)N1CCc2ccccc2C1 | 1.68 |
| CCOc1cccc2cc(C(=O)NCc3ccc(F)cc3)c(=N)oc12 | 10.8 |
| O=C(Nc1nc(-c2ccccc2)cs1)c1ccc2c(=O)n3c(nc2c1)CCCCC3 | 13.1 |
| Cc1cccc(CC(=O)Nc2cccnc2)c1 | 5.7 |
| COc1cccc(OCCCn2cc(/C=C3/C(=N)N4C=C(C)SC4=NC3=O)c3ccccc32)c1 | 12.3 |
| CCC(=O)Nc1cccc(NC(=O)c2cc3ccccc3o2)c1 | 6.4 |
| CCOC(=O)c1ccccc1NC(=O)C1CC(=O)N(c2ccccc2)C1 (stereo not drawn) | 9.81 |
| Cc1cc(Cl)ccc1NC(=O)NC1CCN(S(=O)(=O)c2ccc(F)cc2)CC1 | 2.31 |
| O=C(O)c1ccc(N=Nc2c(-c3ccccc3)[nH]oc2=O)cc1 | 19.2 |
| Cc1cc(C)c(S(=O)(=O)N2CCN(C(=O)C(C)Cn3nc(C)nc3C)CC2)c(C)c1 (stereo not drawn) | 12.6 |
| Cc1cc(C)c(C#N)c(SCC(=O)N2CCCCC2)n1 | 13.4 |
| CCCNC(=O)C1CN(S(=O)(=O)c2ccccc2)CCN1S(=O)(=O)c1ccccc1 (stereo not drawn) | 9.18 |
| COc1ccccc1CNC(=O)CCCN1C(=O)COc2ccc(C)cc21 | -3.34 |
| Nc1cc(=O)[nH]c(SCC(=O)N2CCCCC2)n1 | 22.3 |
| CC(C)N1CCC(N2CCN(Cc3cc(F)ccc3-n3cccn3)CC2CCO)CC1 (stereo not drawn) | 1.05 |
| O=[N+]([O-])c1ccc(-n2cccc2/C=N/Nc2nc(N3CCCCC3)nc(N3CCCCC3)n2)cc1 | 11.6 |
| CN(Cc1ccccc1)C1CCCN(C(=O)c2ccc(Cl)s2)C1 (stereo not drawn) | 7.85 |
| CCOC(=O)C1CCCN(CC(=O)Nc2nc(-c3ccccc3)cs2)C1 (stereo not drawn) | 13.3 |
| O=C(c1cc(-c2ccc(Cl)cc2Cl)on1)N1CCCCCC1 | 6.5 |
| CC1CN(CC(=O)Nc2ccc(Br)cn2)CC(C)O1 (stereo not drawn) | 15.1 |

| Structure (SMILES) | hERG current change (%, negative = inhibition) at 1uM [%] |
| --- | --- |
| CCOc1ccc(CCNC(=O)CS(=O)Cc2nc(-c3ccccc3Cl)oc2C)cc1OCC (stereo not drawn) | 14.6 |
| CC(=O)CCc1c(C)nc2ccc(C(=O)O)cc2c1Cl | 9.09 |
| COCCN(CC(=O)Nc1cccc(C)c1C)C(=O)c1cc2c(s1)CCC2 | 23.4 |
| CC(/C=C/c1ccccc1)=N/O | 10.8 |
| CC(C)c1nnc(NC(=O)CCC(=O)Nc2ccccc2)s1 | 12.1 |
| CCc1ccc(-c2csc(NC(=O)Oc3ccccc3)n2)cc1 | 11.8 |
| CC(C)COc1ccc(C(=O)Nc2cc(S(=O)(=O)N3CCOCC3)ccc2N2CCCC2)cc1 | 1.7 |
| Cc1sc2nc(CC(=O)NN)[nH]c(=O)c2c1C | 9.92 |
| O=C(CCCc1ccccc1)NCCc1ccc(F)cc1 | 14.6 |
| S=C(Nc1ccc(Cl)cc1)NN1CCOCC1 | 5.15 |
| Cc1ccc(S(=O)(=O)N2CCCCC2)cc1NC(=O)Cc1c[nH]c2ccccc12 | -9.89 |
| Cc1csc(NC(=O)c2cc(-c3ccncc3)nc3ccccc23)n1 | 3.83 |
| COc1ccc(NC(=O)c2cn(CCC#N)nc2-c2ccccc2)cc1 | 5.29 |
| O=C(NNC(=O)c1ccccc1Cl)c1cccs1 | 10.6 |
| Cc1cc(C)n(S(=O)(=O)Cc2ccccc2)n1 | 8.62 |
| O=C(C[n+]1ccccc1)N/N=C/c1ccc(O)cc1.[Cl-] | 12.9 |
| CC(=O)c1ccc(NC(=O)c2ccc3c(=O)n4c(nc3c2)CCCCC4)cc1 | 8.35 |
| O=S(=O)(c1ccccc1F)N1CCN(CCc2ccccc2)CC1 | 12.2 |
| COc1cc(CCC(=O)NCc2ccc(S(N)(=O)=O)cc2)cc(OC)c1OC | 16.1 |
| CC(C)(C)OC(=O)N1CCN(C(=O)c2[nH]cnc2C(=O)N[C@@H](Cc2ccccc2)C(=O)OCc2ccccc2)CC1 | 4.62 |
| CCOC(=O)c1c(C)nc2sc3c(=O)n(-c4ccc(OC)cc4)cnc3c2c1-c1ccc(OC)cc1 | 12 |
